Assay results from PubChem BioAssay AID485294 (National Center for Advancing Translational Sciences (NCATS), 2010).
About 150 (0.041%) of roughly 370,000 compounds were called active. The shares of active, inactive and inconclusive entries below differ from those in the screen. Calls follow the shape of the dose curve; as a rule, active = well fitted inhibition curve with a large enough effect; inconclusive = small, poorly fitted or top-dose-only effect; inactive = flat fitted curve, though single readings scatter. Potencies of inconclusive entries are left out as doubtful fits.
Also: nearly all actives have a fitted effect of over 25% in size.
Potency is read from the fitted curve at half-maximal effect; tags tell the direction and shape of the fitted curve.

These compounds were tested against Beta-lactamase (Escherichia coli (strain K12)) (UniProt P00811) (assay: qHTS Inhibitors of AmpC Beta-Lactamase (assay with detergent)). Conditions: AmpC hydrolysis of nitrocefin, absorbance 480 nm, 0.01% Triton; series mostly up to 114 µM.
Chain of UniProt P00811 (P00811 whole entry, looked up): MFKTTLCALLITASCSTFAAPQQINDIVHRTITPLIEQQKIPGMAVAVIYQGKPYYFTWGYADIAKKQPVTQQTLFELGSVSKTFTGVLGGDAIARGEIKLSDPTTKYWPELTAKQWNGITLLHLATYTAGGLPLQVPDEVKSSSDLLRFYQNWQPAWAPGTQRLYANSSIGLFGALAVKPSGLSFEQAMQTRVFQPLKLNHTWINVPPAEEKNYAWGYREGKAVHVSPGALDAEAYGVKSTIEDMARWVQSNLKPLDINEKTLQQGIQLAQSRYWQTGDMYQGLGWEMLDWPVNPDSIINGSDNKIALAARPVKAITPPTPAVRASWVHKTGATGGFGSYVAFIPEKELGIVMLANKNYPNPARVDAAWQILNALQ
Summary of the method: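 20 mM phosphate pH 7.0 + 0.01% (detergent screen) or 0.0001% Triton X-100; 5.3 nM AmpC reagent; cpd preinc 15 min RT; nitrocefin (800 uM stock) to start; A480 q20 s × 4 min; Activity was normalised to no-enzyme and no-compound control wells.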
For O=C(Cc1cccs1)Nc1nc(-c2ccccc2)cs1, the Potency was inconclusive [inhibitor, full curve, poor fit].
For Nc1nc(Nc2ccccc2)nc(NCc2ccco2)c1[N+](=O)[O-], the Potency was “inactive”.
O=C(CCl)N1CCN(S(=O)(=O)Cc2ccccc2)CC1 was tested, and the Potency was “inactive”.
O=C(NCc1nnc(SCC(=O)N2CCC(Cc3ccccc3)CC2)o1)c1ccccc1F was tested, and the Potency was inconclusive [inhibitor, full curve, poor fit].
In the case of Nc1c(S(=O)(=O)c2ccccc2)c2nc3ccccc3nc2n1/N=C/c1ccco1, the Potency is reported as inconclusive [inhibitor, full curve, poor fit].
With O=C(Nc1cccc(-c2nnc(-c3ccco3)o2)c1)c1ccccc1 the Potency was inconclusive [inhibitor, partial curve].
CN(C)S(=O)(=O)c1ccc(NC(=O)C2CC3C=CC2C3)cc1 (stereo not given) was tested, and the Potency was inconclusive [inhibitor, partial curve, poor fit].
With COc1cc(NC(=O)COC(=O)c2n[nH]c3ccccc23)c(C)cc1[N+](=O)[O-] the Potency was inconclusive [inhibitor, full curve, poor fit].
O=C(COC(=O)Cn1cnc2ccccc21)Nc1ccc2c(c1)OCCO2 was tested, and the Potency was inconclusive [inhibitor, partial curve, poor fit].
With CNC(=O)/C(C#N)=c1\s/c(=C/C(=O)OC)c(=O)n1-c1ccccc1 the Potency was inconclusive [inhibitor, full curve, poor fit].
In the case of CC1CCCN(c2nc3c(c(=O)n(C)c(=O)n3C)n2Cc2ccccc2)C1 (stereo not given), the Potency is reported as inconclusive [inhibitor, partial curve, poor fit].
With CCN(CC)c1ccc(/C=N/NC(=O)c2cccc(S(=O)(=O)N3CCOCC3)c2)c(O)c1 the Potency was inconclusive [inhibitor, partial curve].
For COc1ccccc1-n1nc(C(=O)O)c2ccccc2c1=O, the Potency was inconclusive [inhibitor, partial curve].
In the case of COc1ccccc1CC(=O)OC(C)C(=O)Nc1ccc(S(=O)(=O)N2CCCCC2)cc1 (stereo not given), the Potency is reported as inconclusive [inhibitor, full curve, poor fit].
O=C(CNc1cccc2ccccc12)N/N=C/c1ccc(OC(=O)/C=C/c2ccco2)cc1 was tested, and the Potency was inconclusive [inhibitor, full curve].
With CCN(CC)c1ccc(C(=O)c2cnc(/N=C/N(C)C)s2)cc1 the Potency was inconclusive [inhibitor, full curve].
In the case of COc1ccc(NC(=O)c2cc(S(=O)(=O)N3CCCC3)ccc2OC)cc1, the Potency is reported as inconclusive [inhibitor, partial curve].
For CCOc1ccc(C(=O)N/N=C/c2ccc(SC)cc2)cc1, the Potency was “inactive”.
In the case of Clc1ccc2c(c1)-c1nnc(Br)n1-c1ccccc1S2, the Potency is reported as inconclusive [inhibitor, full curve, poor fit].
In the case of O=C(NCc1ccco1)c1cnn2c(C(F)(F)F)cc(-c3cccs3)nc12, the Potency is reported as inconclusive [inhibitor, full curve].
CN(C)C(=O)CSc1nnc(-c2cccnc2)n1-c1ccccc1 was tested, and the Potency was inconclusive [inhibitor, single point].
With Cc1ccn2cc(CCNC(=O)CC(C)(C)C)nc2c1 the Potency was inconclusive [inhibitor, partial curve, poor fit].
For CC(NC(=O)Cc1ccc(F)cc1)C(c1cccs1)N1CCN(C)CC1 (stereo not given), the Potency was inconclusive [inhibitor, full curve, poor fit].
With CN(C(=O)c1ccc(Cl)nc1)C1(c2ccccc2Cl)CCCCC1=O (stereo not given) the Potency was inconclusive [inhibitor, partial curve].
COc1ccc(NC(=O)Cn2c(=O)c3ccccc3n3nncc23)c(OC)c1 was tested, and the Potency was “inactive”.
Cc1cc(C)nc(SCc2nc3nc(C)cc(C)n3c2Br)n1 was tested, and the Potency was inconclusive [inhibitor, single point].
With COc1ccc(-c2cc(=O)oc3cc(OCC(=O)NCC(O)c4ccccc4)ccc23)cc1 (stereo not given) the Potency was inconclusive [inhibitor, full curve, poor fit].
With COc1ccccc1C(=O)Nc1ccc(N2CCN(C(C)=O)CC2)cc1 the Potency was “inactive”.
With CCc1ccc2c(CN3CCc4cc(OC)c(OC)cc4C3)cc(=O)oc2c1 the Potency was inconclusive [inhibitor, full curve, poor fit].
Cc1ccc(CNC(=O)c2ccc(N3CCCC3)c(NC(=O)Nc3ccc(F)c(Cl)c3)c2)cc1 was tested, and the Potency was inconclusive [inhibitor, single point].
Cc1ccnc(NC(=O)c2cc3cc(F)ccc3s2)c1 was tested, and the Potency was “inactive”.
In the case of Nc1nn(-c2ccccc2)c(N)c1N=Nc1ccc2c(c1)OCO2, the Potency is reported as inconclusive [inhibitor, partial curve].
Cc1ccc(NC(=O)COc2ccccc2)cc1S(=O)(=O)N1CCCCCC1 was tested, and the Potency was inconclusive [inhibitor, partial curve, poor fit].
For COc1ccc(S(=O)(=O)N2CCOC2CNC(=O)C(=O)NCc2ccco2)cc1 (stereo not given), the Potency was “inactive”.
In the case of CCOC(=O)c1[nH]c(Cc2[nH]c(C(=O)OCC)c(C)c2CCC(=O)OC)c(CCC(=O)OC)c1C, the Potency is reported as inconclusive [inhibitor, full curve, poor fit].
With CCOc1ccc(Oc2ccccc2NS(=O)(=O)c2ccc(CCC(=O)O)cc2)cc1 the Potency was “inactive”.
CCOc1ccc2nc(SCc3cccc(C)c3)nc(C)c2c1 was tested, and the Potency was inconclusive [inhibitor, full curve, poor fit].
With CCN(CC)CCCNC(=O)c1cn(C)c2ccc(S(=O)(=O)N(C)C)cc2c1=O the Potency was inconclusive [inhibitor, full curve].
With CC1CCCCN1c1nnc(NC(=O)c2cc(-c3ccc(Br)cc3)on2)s1 (stereo not given) the Potency was inconclusive [inhibitor, full curve, poor fit].
In the case of C/C(=N\Nc1nc(N2CCOCC2)nc(N2CCOCC2)n1)c1ccc([N+](=O)[O-])cc1, the Potency is reported as inconclusive [inhibitor, single point].
